Laboratory results: US11766479 (ZHEJIANG SHIMAI PHARMACEUTICAL, dated 2023)

How the values were obtained:
recombinant human CD3 = recombinant human CD3 (human); assay: ELISA, human CD3 coated
Description: (§1) ELISA was performed according to standard protocols, to determine binding affinity of anti-ENPP3 3A10 mAb to recombinant human ENPP3 (AcroBiosystems). Briefly, recombinant human ENPP3 was coated on Corning EIA/RIA high-binding 96-well plates (Corning Inc.) at 100 ng per well overnight at 4° C. and blocked with 3% nonfat milk in PBS (pH7.4). Five-fold serially diluted antibodies were added and incubated at 37° C. for 1 h. The plates were washed with PBS containing 0.05% TWEEN® 20. Bound antibodies were detected by anti-human IgG (Fc-specific)-peroxidase antibody (Sigma). The assay was developed at room temperature with TMB substrate (Solarbio) and monitored at 450 nm with a microplate reader. The half-maximal binding ($EC50$) was calculated by fitting the data to the Langmuir adsorption isotherm.
(§2) To determine binding affinity of the bispecific antibody CMD016 to both ENPP3 and CD3, ELISA experiments were performed as described in Example 3, with the coating proteins of human ENPP3 or human CD3.

[1] = biological target: T1, recombinant human ENPP3 (full-length extracellular domain) (human, UniProt O14638 31-875); assay: ELISA, human ENPP3 coated
T1 construct: extracellular domain; Bought protein; also called Human ENPP3 (CD203c) protein
T1 sequence (looked up): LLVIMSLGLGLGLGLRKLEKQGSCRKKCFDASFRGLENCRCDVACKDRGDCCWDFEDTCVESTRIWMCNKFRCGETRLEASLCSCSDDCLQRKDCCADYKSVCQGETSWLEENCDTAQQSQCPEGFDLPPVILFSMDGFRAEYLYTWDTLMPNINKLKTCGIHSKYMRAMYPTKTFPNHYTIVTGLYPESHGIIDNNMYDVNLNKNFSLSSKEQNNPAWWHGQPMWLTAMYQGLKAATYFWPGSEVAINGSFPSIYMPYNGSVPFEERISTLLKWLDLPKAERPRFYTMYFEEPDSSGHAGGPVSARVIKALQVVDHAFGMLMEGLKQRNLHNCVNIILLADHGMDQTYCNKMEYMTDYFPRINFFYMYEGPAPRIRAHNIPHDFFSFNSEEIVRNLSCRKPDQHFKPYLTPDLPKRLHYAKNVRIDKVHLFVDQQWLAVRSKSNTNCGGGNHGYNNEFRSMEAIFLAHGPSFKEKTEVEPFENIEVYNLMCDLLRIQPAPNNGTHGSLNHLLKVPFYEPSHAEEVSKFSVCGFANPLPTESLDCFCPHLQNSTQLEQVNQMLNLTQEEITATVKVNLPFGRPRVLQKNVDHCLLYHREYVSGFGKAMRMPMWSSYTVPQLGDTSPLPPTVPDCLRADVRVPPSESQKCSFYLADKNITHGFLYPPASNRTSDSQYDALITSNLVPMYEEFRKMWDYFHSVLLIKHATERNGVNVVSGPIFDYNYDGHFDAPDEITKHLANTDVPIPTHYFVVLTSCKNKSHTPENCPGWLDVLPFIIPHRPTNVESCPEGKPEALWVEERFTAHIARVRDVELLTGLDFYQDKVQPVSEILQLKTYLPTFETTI
Description: as §1, §2

Sequence of recombinant human CD3 (P07766 23-126): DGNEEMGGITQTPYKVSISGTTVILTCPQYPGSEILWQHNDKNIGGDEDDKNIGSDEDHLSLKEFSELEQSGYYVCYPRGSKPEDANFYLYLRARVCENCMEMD

- EC50 (recombinant human CD3): 5.28 nM
- EC50 [1]: 2.29 nM
B1: CMD016 (3A10-based ENPP3xCD3 HBiTE) (bispecific antibody)
heavy: EVQLVESGGGLVKPGGSLRLSCAASGFTFSNAWMSWVRQAPGKGLEWVSYISSSGSTIYYADSVKGRFTISRDNAKNSLYLQMNSLRAEDTAVYYCARLAGPYYFDYWGQGTLVTVSSGSGGSGGGGSGGGGSEVQLVESGGGLVQPGGSLRLSCAASGFTFNTYAMNWVRQAPGKGLEWVARIRSKYNNYATYYADSVKGRFTISRDDSKNTLYLQMNSLRAEDTAVYYCARHGNFGSSYVSYFAYWGQGTTVTVSSASTKGPSVFPLAPSSKSTSGGTAALGCLVKDYFPEPVTVSWNSGALTSGVHTFPAVLQSSGLYSLSSVVTVPSSSLGTQTYICNVNHKPSNTKVDKKVEPKS[human IgG1 Fc with T366L Y407H (EU numbers) left out here]
light: QSVVTQPPSVSAAPGQKVTISCSGSSSNIGNNYVSWYQQLPGTAPKLLIYDNNKRPSGIPDRFSGSKSGTSATLGIDGLRTGDEAEYFCGVWDSSLRAELFAGGTKVTVLGSGGGGSGGGGSEIVVTQSPATLSVSPGERATLSCRSSTGAVTTSNYANWVQQKPGQAPRGLIGGANKRAPGVPARFSGSLSGDEATLTISSLQSEDFAVYYCALWYSNLWVFGQGTKLEIKRTVAAPSVFIFPPSDEQLKSGTASVVCLLNNFYPREAKVQWKVDNALQSGNSQESVTEQDSKDSTYSLSSTLTLSKADYEKHKVYACEVTHQGLSSPVTKSFNRGE[human IgG1 Fc with T366L Y407H (EU numbers) left out here]
notes: Heterodimer of one light and one heavy chain (about 120 kDa non-reduced); Light chain: anti-ENPP3 VL, linker, anti-CD3 hSP34 VL-CL, mFc7.2; Heavy chain: anti-ENPP3 VH, linker, anti-CD3 VH-CH1, mFc7.2; also called 3A10-based ENPP3×CD3 HBiTE; bispecific antibody targeting ENPP3 and CD3
